The supplement of paper PMC3334620
Over roughly 33,000 sequences, “E-score (-0.5 to 0.5)” has its median near -0.041; the highest 2% begin near 0.37. This is one part of the list.

target: T1, Ecm22 (UniProt Q05958); assay: PBM E-score (8-mer binding enrichment) (E-score (-0.5 to 0.5)); higher = stronger / more preferred TF binding; most listed sequences are background and not binding sites; settings: protein concentration: 200 nM; construct: GST-full length
T1 sequence: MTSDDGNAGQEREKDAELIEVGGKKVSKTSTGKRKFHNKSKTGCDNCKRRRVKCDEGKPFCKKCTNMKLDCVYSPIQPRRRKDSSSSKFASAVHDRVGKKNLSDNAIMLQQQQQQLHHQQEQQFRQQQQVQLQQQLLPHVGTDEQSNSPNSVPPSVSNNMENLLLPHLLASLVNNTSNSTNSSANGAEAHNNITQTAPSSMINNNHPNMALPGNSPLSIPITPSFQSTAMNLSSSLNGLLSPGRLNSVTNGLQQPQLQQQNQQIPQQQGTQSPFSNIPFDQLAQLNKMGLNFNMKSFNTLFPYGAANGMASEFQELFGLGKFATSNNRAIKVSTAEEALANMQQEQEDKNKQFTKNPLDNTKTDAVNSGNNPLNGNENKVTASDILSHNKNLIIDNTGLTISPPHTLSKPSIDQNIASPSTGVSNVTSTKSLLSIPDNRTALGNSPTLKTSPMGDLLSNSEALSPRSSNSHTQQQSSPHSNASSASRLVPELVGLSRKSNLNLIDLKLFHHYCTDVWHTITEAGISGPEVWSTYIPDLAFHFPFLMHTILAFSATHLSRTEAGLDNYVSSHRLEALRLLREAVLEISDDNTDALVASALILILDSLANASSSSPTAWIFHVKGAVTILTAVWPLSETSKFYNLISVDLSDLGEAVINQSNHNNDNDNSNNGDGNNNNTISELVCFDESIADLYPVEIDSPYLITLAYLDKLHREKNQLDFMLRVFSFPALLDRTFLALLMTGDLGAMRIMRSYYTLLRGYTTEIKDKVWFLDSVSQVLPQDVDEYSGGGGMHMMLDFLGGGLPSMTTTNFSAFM
Protocol: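 Universal 'all 10-mer' protein binding microarrays (Agilent AMADID 015681) probed with GST-tagged S. cerevisiae TFs (full-length or DBD) made by in vitro transcription/translation (PURExpress), about 100-200 nM. Bound TF was detected with fluorescent anti-GST. Each ungapped 8-mer (which stands for itself and its reverse complement) is scored by the PBM enrichment score (E-score), a modified Wilcoxon-Mann-Whitney statistic from -0.5 to +0.5, computed with the Universal PBM Analysis Suite. Scale: above 0.35 generally sequence-specific binding.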

Sequence	PBM E-score
TATTAAGA	0.12
AGATTTCA	-0.0146
CCTGTTCC	-0.188
ACGGGATG	0.139
CGTCGCAC	0.278
CGGTACGC	0.315
GGGCAGTA	-0.0551
GGGTCACA	-0.116
ATAGAAGA	-0.135
GACCAACA	0.0643
GCATCATA	0.00953
ACATAGGT	0.0224
GACGATAC	0.127
TCATAGAA	-0.00509
GAAAGTAC	0.0666
ACACTTGA	-0.173
CCACATAC	0.178
AGAGCCCC	0.0308
CCTACGCC	-0.34
AGAGCGAG	0.307
GTAGACGA	0.119
ACACACCA	0.0138
ATCACGCC	-0.0722
CCGAGCCA	0.138
TCAGGAAA	-0.0259

Sequence	PBM E-score
ATATTGGA	-0.13
AAGTGATC	0.0249
CTCGGTCA	0.246
GATTACGC	0.00603
ACCCGGGG	-0.141
TAGTGGGA	-0.315
ACCGCTAA	0.144
CATTATCA	-0.129
AGACAATA	0.111
AGCGAAAG	0.127
AATTTAAT	0.0583
GCGAGAGC	0.182
GCAAATGA	0.0372
AATTTGCT	-0.0782
CAAATGCA	0.00544
TAGTATGA	0.0394
CGAAAGAG	0.0563
CGCATAAC	0.168
ATTACGTC	0.00802
TATTCCGA	0.0652
AACTTGCT	-0.208
ACCTGGAG	-0.0996
TACTGCAA	-0.124
CGAAACAC	0.0709
GACTTCCC	-0.212

Sequence	PBM E-score
CAGGCCTC	-0.294
GCTCGACA	-0.102
CACGATTC	0.244
AACAAGGC	-0.237
AAATGCAT	-0.0262
ATGACAGG	-0.0225
ACACGTGG	-0.232
AGATGCTA	-0.00158
GGCATAAC	-0.13
AACATGGG	-0.101
CTGTCGGA	0.0999
ACAAGTCA	0.0408
TACAGTGA	-0.164
TCCAGCCA	-0.299
ACCCTTGG	-0.233
AGCAAGGC	-0.121
CCAATCGC	-0.00902
TGCAGGCA	-0.122
CTAGAGGC	-0.156
CCGTCTCG	0.231
GTGCCGGA	-0.0508
GCTTAACC	-0.0005
AACCACTA	-0.147
GGACGGGA	-0.0915
GAGTAAGA	-0.0087

Sequence	PBM E-score
ATCACGGC	-0.0305
CGCTTTTA	-0.0021
AGTGACGC	0.0126
AATATGAT	0.0267
GTTCCTGA	0.125
ACGATCGA	0.277
AGTGCAGC	-0.13
CTCGCCCA	-0.0108
CATTGCAA	-0.155
TAAAGCAA	-0.0154
AATGCCGT	0.109
AGGACGAA	-0.00901
AATCACTA	-0.089
ATTGGGGA	-0.132
CATGAGCC	-0.0951
CGCAGTAG	-0.131
CTAGTGAC	-0.165
AGCCTTCA	-0.236
TGCAGCCA	-0.171
AATTGCCA	0.0187
ATTGTCCG	0.0363
CCATAGCG	-0.0678
TATCACCA	0.0407
AGCCAGCT	-0.132
CGCATCGA	0.145

Sequence	PBM E-score
AACACCTC	-0.168
CTCGATGA	-0.0535
GGTACAAA	-0.0856
GAAGATGC	-0.0972
AATACAAA	0.206
ACGCGGTG	-0.00032
CCGATATC	0.0392
AAGGGCTG	-0.377
CGCCAAAC	0.0809
GGAGGGAA	-0.0738
GAACCTAA	-0.12
CAGACAGG	-0.155
GGCGATCA	-0.159
CCTATACC	-0.0658
AGATTGGA	-0.135
AAACAATG	-0.0509
AATAAATG	-0.0714
CGCCTGTA	-0.166
ATCCGGAG	0.0978
GTGGGCTA	-0.28
CATGTCTA	-0.138
AGAAGTCG	-0.0775
ACATGCAT	-0.0252
CCCACCGG	-0.218
GTGGATGA	-0.123

Sequence	PBM E-score
AGAAATAA	-0.0747
GCCATAGA	0.0195
AATGGTGA	-0.128
AATCTTAA	-0.0586
CGGCGAAA	0.0597
CGGGCTGA	-0.161
AGACTTAA	-0.149
AGCACGGC	-0.00675
ACAGGAGT	-0.248
ATCCAATC	-0.0689
GAGTCCCC	-0.309
ACTTAGAA	0.0435
TACGCTGA	0.253
GTCAGAGA	-0.149
TTATGGAA	-0.0194
ATGCAAAC	0.114
ATTGACGA	0.0606
ACTTTTAC	0.166
CAGCCTGA	-0.187
CCCATAAA	-0.159
GACAGGCA	-0.0606
ACTGAAGT	-0.1
GTGGGTAA	-0.111
ATTCGATC	0.0614
CACGCGCC	-0.179

Sequence	PBM E-score
CGGTGTAA	0.171
AAAGTATT	-0.0376
GGTATAGA	-0.0121
GAGCAGGC	-0.0285
AGCCCCGA	-0.148
TAGGCCAA	-0.116
ATCATAAG	-0.0578
CGCTCAAC	0.159
ACATTCGA	0.0496
ATAATAAT	0.067
AGCAGGAT	-0.163
ACCCCCGC	-0.191
GAACAGAC	-0.0383
GTTGGGAA	0.00512
AGCCGGGC	-0.11
GGGATATA	-0.143
ACTGGTCC	-0.00456
CGTAGGAG	0.0561
ATGTTTAC	0.113
CACGTCAG	-0.2
ATAACTAA	-0.0258
AAACCTTG	-0.307
